Source: the supplement of paper PMC3334620
The full ranking holds about 33,000 sequences; the median of “E-score (-0.5 to 0.5)” is about -0.036, and the highest 2% start at about 0.37. The list shows a part of the results.

biological target: T1, Yer064c (UniProt P40041); test: PBM E-score (8-mer binding enrichment) (E-score (-0.5 to 0.5)); higher = stronger / more preferred TF binding; most listed sequences are background and not binding sites; settings: protein concentration: 200 nM; construct: GST-full length
T1 sequence: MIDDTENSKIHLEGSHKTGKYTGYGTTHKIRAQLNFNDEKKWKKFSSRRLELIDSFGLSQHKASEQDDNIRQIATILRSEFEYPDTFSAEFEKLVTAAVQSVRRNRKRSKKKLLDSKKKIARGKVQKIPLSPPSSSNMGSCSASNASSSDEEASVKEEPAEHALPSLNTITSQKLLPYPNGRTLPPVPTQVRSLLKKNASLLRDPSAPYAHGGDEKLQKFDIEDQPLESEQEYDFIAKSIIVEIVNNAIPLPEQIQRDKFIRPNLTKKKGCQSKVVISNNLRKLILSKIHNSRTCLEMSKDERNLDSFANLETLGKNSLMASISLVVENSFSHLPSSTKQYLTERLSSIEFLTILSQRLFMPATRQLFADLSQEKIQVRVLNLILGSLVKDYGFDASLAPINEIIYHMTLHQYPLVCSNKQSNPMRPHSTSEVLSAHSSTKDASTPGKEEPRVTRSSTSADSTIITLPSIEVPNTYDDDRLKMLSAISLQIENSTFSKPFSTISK
Procedure, shortened: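 Masliner-normalised scans of fluorescent anti-GST signal were the basis for scoring. That signal came from GST-tagged yeast transcription factors applied at about 100-200 nM to double-stranded universal all-10-mer Agilent arrays on fresh or once-stripped slides. Each ungapped eight-base word, pooled with its reverse complement, received an E-score from the Universal PBM Analysis Suite.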

Sequence	PBM E-score
CACACGGG	-0.0636
GCTTCATA	-0.19
CTGTGGGA	-0.116
CAAATACA	-0.157
CTAATTTC	0.0706
GCGATAGC	-0.116
TAGAGAAA	-0.122
ATCGATCC	-0.143
CATGCGCG	-0.0174
ATGCTTGG	-0.113
CTACGAGA	0.0266
AGAAGAGA	0.00892
ATTTTTCA	0.135
AAGAAGTC	0.308
CCTCCCCG	-0.0676
AGGAATTA	0.24
CGATCAAA	0.0183
TAACCGCA	0.096
AATGGAGC	-0.0812
GGTCCGAC	0.0539
GGGTTAAA	0.0677
CTTCTGTA	-0.0492
CAGTTTCG	-0.0656
GCGACCGA	-0.116
AACTTCCC	-0.214

Sequence	PBM E-score
CGAGAAAG	0.0479
AAGTTTGC	-0.0507
CGAGCAGA	-0.0955
AACGCACA	-0.185
GCCGCGGC	-0.253
ATCATGGA	0.19
ATTTCCTC	-0.0754
CATAGCGG	-0.163
CGCTCTGC	0.121
AACTCGTA	-0.019
TGGTATAA	-0.0104
AGATATCA	0.0561
GAACTTCC	-0.0438
CATAACGC	-0.193
CATAGCGC	-0.00748
AAGCTCAG	0.0567
TAAGCTCA	0.0309
AAACGAAA	0.0828
CCACACGA	-0.129
CGTTTGAG	0.175
TAGGAACA	-0.0459
AACGCGTT	0.00692
GTTCCCCA	-0.163
GATGTGAA	-0.0458
AAACTTCC	-0.0375

Sequence	PBM E-score
GATATACC	-0.056
CTGGGAGC	-0.283
AGGAGGGC	-0.238
CCATTCCA	-0.228
CTGTGGGC	-0.194
GGCACCGA	-0.172
CCATACCC	-0.0548
CGGAGACA	0.0133
CAACAGAG	0.0683
AAAACATC	-0.0742
AACGCGTC	-0.185
GCGAAATA	-0.0954
GAAGCAAC	-0.179
CGCGGTGA	0.107
CCCCCGGA	-0.215
ACCCTTAT	-0.0558
AAAATTCG	0
AATCGCGC	0.141
AGCTCACC	-0.0458
ACAACCAT	0.204
AGTCCGAG	0.277
AGCACTGG	-0.154
TACTACTA	0.0844
GATCCAAA	0.0195
CCACTGAG	-0.0503

Sequence	PBM E-score
ACCGCATC	-0.0934
AGATCACC	0.0405
CGCGATTC	0.268
AACATTAA	-0.00496
TACCGGGA	-0.16
AGTACAGA	0.173
CTCATCTA	0.226
ACACTCGT	0.0295
CGAATCAG	0.384
ATACCTAG	0.0272
AAGAGGAG	-0.052
CACCTTTA	-0.0652
GAGTTATC	0.145
AGTGTGTA	0.0949
CATCCCAC	-0.0485
GATTCAAA	0.371
CAGAGCCG	-0.0738
CGGCGCCA	-0.2
ACGCCCCG	-0.191
CCTGACAC	0.023
ACTAATGG	0.171
GATAGTGC	-0.282
AATGTCCA	-0.315
CAAATTCA	-0.243
ACACCACT	0.0393

Sequence	PBM E-score
CCACCCGC	-0.0534
AACAAGCT	-0.278
GTTTGGGA	-0.0461
GTAATTGA	0.0754
ATGGCAAT	-0.0797
CTAGCTAC	-0.116
GACCGGGA	-0.157
GATTTACC	0.00206
AGTCGGGC	0.286
ACTGCTCC	-0.0976
GGAGCTGA	0.059
CTTAAAAA	-0.0045
AGGTTCAG	0.0267
CTTCCTCC	-0.383
AACGCGTG	0.0132
CTAAGCTA	0.0659
AAGTCACC	0.447
AGAATTAT	0.0179
ACGTCGGA	-0.181
ACAGCTGA	0.0256
CTGTGCCA	-0.115
CGCTCCCG	0.17
CATGGACG	-0.174
CGCGCCGC	-0.143
ACCAACCC	-0.0453

Sequence	PBM E-score
CTGAACAA	0.0541
CTTAGATC	0.0655
CGAAATCG	-0.0559
AAGGGTAA	0.0589
CCGAACGC	-0.0566
ACACGAGG	-0.124
AAATCAGG	0.222
CCAGAGGA	0.00907
GATGGTCA	0.131
TGCAAGAA	0.00136
CCTCCGAG	-0.0599
GAATGGAA	-0.0983
GGATCGGA	-0.224
CGTGTAGA	0.00707
GGGATCCA	-0.185
CACGTCAC	-0.17
CGTACGGC	-0.2
ATATAACG	0.0524
TGCGAGCA	-0.0494
CAATATAA	0.0543
CCCGAGAA	-0.0467
ATACCCAG	-0.15
ATTGAACA	0.066
AAGAGTCG	0.423
AGGTGACG	-0.188

Sequence	PBM E-score
ACGGCTAG	-0.178
CCTGATGC	-0.0643
AACCCATT	-0.00125
GGTGACTA	0.486
ACTGTATG	0.139
CGGCCAGA	-0.126
GGGTCCCA	-0.194
CCGGCACG	-0.197
CGGCTAAG	-0.0353
AAAGCTAG	-0.024
CTCGAGGC	-0.0557
CCCCGCAG	-0.283
CCTCTATA	-0.25
ACGAAAAA	-0.0445
CGCGCGTC	-0.143
CGCAGCGA	0.123
ATATGAGG	0.0398
ATTGTCGC	0.0653
GAAACGGA	-0.204
AAGCAGTG	-0.0938
CGAAGCCC	-0.299
GGCCACAA	-0.268
CGCAGGCC	-0.279
GTGCACGA	0.00691
CCTTCTCG	-0.281

Sequence	PBM E-score
GGAGTGAC	0.255
CAGAGAGG	-0.235
ATGATATG	0.037
CAGTAGTC	0.403
GTCGAACA	0.0579
ACTTTGAA	0.21
CACCGCTC	-0.145
ATAAGGGC	-0.153
ATCACCAC	0.165
ACTTAGCG	0.1
AGGCAAAC	-0.222
CTGATATC	-0.024
AATCTAAA	0.207
AGATGAGA	0.191
ACCCTGAT	0.174
ACAGAACT	0.158
AACGATGG	0.00598
ACCATGAC	0.237
AAGTCTAG	-0.11
ATTTGACC	-0.0689
ACACAGTA	0.166
AAGACAAC	-0.0105
GCACCTGA	-0.00206
GCAAGGAC	-0.0996
GCGGAAAA	-0.235

Sequence	PBM E-score
GACTGTTA	0.279
TCTGCACA	-0.111
AAGCAGGC	-0.0443
CTGTTCCA	-0.13
TCGGCACA	-0.0968
ACCCGGCT	-0.0168
GACGGCCC	-0.375
ATCATCCG	0.242
CCGAGTTA	-0.0385
ATGGGTGC	-0.15
CTTCGTGA	0.115
AGGAGTCC	0.297
AAACACTC	-0.023
AGGATCTC	-0.291
AGCACACA	0.023
CAACCGAC	0.00099
CTGCACAA	-0.0559
CCACCATA	-0.0008
ACGCTCTG	-0.0609
